PubChem BioAssay (NCATS)
The inconclusive results got no clear call from the source; some entries with a clear call stand among them for comparison. Potencies of inconclusive entries are doubtful fits and often do not repeat. Active and inactive are the calls of the source. Calls follow the shape of the dose curve; as a rule, active = well fitted cell-killing curve with a large enough effect; inconclusive = small, poorly fitted or top-dose-only effect, or effect the other way; inactive = flat fitted curve, though single readings scatter.

Assays:
Experiment in all cases: Primary qHTS to identify gynecologic anti-cancer compounds using libraries of approved drugs and bioactive compounds (AID 1345084); also: nearly all actives have a fitted effect of over 55% in size
[1] = tested on: Hek293T; details: Gynecologic cancer cell panel viability, ATPlite luminescence, 48 h, control line for the selectivity index; series mostly up to 57.5 µM
Outline: (§1)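 Measured: luminescence after ATPlite addition (15 min, RT). Exposure: 48 h, 37 C, 5% CO2.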

[2] = tested on: JEG-3; details: Gynecologic cancer cell panel viability, ATPlite luminescence, 48 h; series mostly up to 57.5 µM
Outline: as §1

[3] = tested on: OV90; details: Gynecologic cancer cell panel viability, ATPlite luminescence, 48 h; series mostly up to 57.5 µM
Outline: as §1

[4] = tested on: PA-1; details: Gynecologic cancer cell panel viability, ATPlite luminescence, 48 h; series mostly up to 57.5 µM
Outline: as §1

[5] = tested on: SKOV3; details: Gynecologic cancer cell panel viability, ATPlite luminescence, 48 h; series mostly up to 57.5 µM
Outline: as §1

[6] = tested on: Tov-21-G; details: Gynecologic cancer cell panel viability, ATPlite luminescence, 48 h; series mostly up to 57.5 µM
Outline: as §1

[7] = tested on: Tov112D; details: Gynecologic cancer cell panel viability, ATPlite luminescence, 48 h; series mostly up to 57.5 µM
Outline: as §1

Measured: Potency
Potency is read from the fitted curve at half-maximal effect; tags tell the direction and shape of the fitted curve.

CC(C)c1nn(-c2c(Cl)cccc2Cl)c2nc(Cc3ccc(OCCO)cc3)[nH]c(=O)c12
active: [4] 0.251 µM | [5] 1.41 µM
inconclusive: [1] 0.1 µM | [2] 0.112 µM [cytotoxic, full curve] | [3] 0.112 µM [cytotoxic, full curve, poor fit] | [6] 0.282 µM [cytotoxic, full curve]

O=C(CCCCCCNC(=O)c1cnc(N(c2ccccc2)c2ccccc2)nc1)NO
active: [2] 15.8 µM | [3] 8.91 µM | [4] 3.16 µM | [7] 28.2 µM
inconclusive: [1] 35.5 µM [cytotoxic, partial curve, poor fit] | [5] 28.2 µM [cytotoxic, partial curve, poor fit] | [6] 28.2 µM [cytotoxic, partial curve]

C1CCC(C(CC2CCCCN2)C2CCCCC2)CC1 (stereo unspecified)
inconclusive: [1] 39.8 µM [cytotoxic, single point] | [2] 39.8 µM [cytotoxic, single point] | [4] 35.5 µM [cytotoxic, single point] | [7] 28.2 µM [cytotoxic, single point]
active: [3] 25.1 µM | [5] 7.94 µM | [6] 31.6 µM

O=C(Nc1ccc(Cl)cc1)Nc1ccc(Cl)c(Cl)c1
inconclusive: [1] 25.1 µM [cytotoxic, single point] | [2] 39.8 µM [cytotoxic, single point] | [3] 39.8 µM [cytotoxic, single point] | [4] 39.8 µM [cytotoxic, single point] | [5] 28.2 µM [cytotoxic, single point] | [7] 22.4 µM [cytotoxic, single point]
